About 800 (1.6%) of roughly 50,000 compounds showed an effect of 50% or more. Some of the results follow.
Each compound was assayed against Bcl-2-like protein 10 (Homo sapiens) (UniProt Q9HD36) (assay: Phenotype converters, Bcl-B/TR3 peptide binding displacement, primary biochemical FP (AID 1240;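 note: 0% = Bcl-B with tracer peptide and DMSO and 100% = tracer peptide lacking Bcl-B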)). Conditions: GST-Bcl-B / FITC-TR3 peptide fluorescence polarization; stronger effect = higher value; compound at 3.75 mg/L.
Sequence of UniProt Q9HD36 (Q9HD36 whole entry, looked up): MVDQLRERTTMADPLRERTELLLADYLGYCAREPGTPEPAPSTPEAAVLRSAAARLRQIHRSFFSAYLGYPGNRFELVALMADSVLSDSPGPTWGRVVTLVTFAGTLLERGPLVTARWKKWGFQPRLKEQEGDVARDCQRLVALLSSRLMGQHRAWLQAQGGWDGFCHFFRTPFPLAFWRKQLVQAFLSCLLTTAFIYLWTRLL
In the case of `CCCOc1ccc(/C=C2\C(=O)N(c3cccc(C(=O)O)c3)N=C2C)cc1OC`, the displacement is reported as 5.3%.
For `COc1cc(NC(=O)/C=C/c2ccc(C)cc2)c(OC)cc1Cl`, the displacement was 10.6%.
In the case of `CCCN(CCC)Cc1cc2ccccc2c2c1COC2`, the displacement is reported as -6.5%.
`Cc1ccc(S(=O)(=O)Nc2ccccc2/C=N/n2cnnc2)cc1` showed a displacement of -0.6%.
For `O=c1c(-c2ccc(Cl)cc2)c(C(F)(F)F)oc2cc(O)ccc12`, the displacement was 9.6%.
`Cc1c(C(=O)Nc2ccc3c(c2)Cc2ccccc2-3)cccc1[N+](=O)[O-]` showed a displacement of -8.3%.
In the case of `CC(C)(C)c1ccc(S(=O)(=O)N2CCCC2)cc1`, the displacement is reported as -10.9%.
`O=C1NC(=O)N(c2ccc(Cl)cc2)C(=O)/C1=C\c1ccc(-c2ccccc2[N+](=O)[O-])o1` showed a displacement of 25.1%.
`O=C(NCc1ccco1)/C(=C/c1ccc(F)cc1)NC(=O)c1ccccc1` gave a displacement of -9.6%.
`CCOC(=O)Nc1n[nH]c(NC(=O)OCC)c1[N+](=O)[O-]` was tested, and the displacement was 10.5%.
Compound `CC(=O)c1cccc(N2C(=O)C3C(C2=O)C2(C)c4ccccc4C3(C)c3ccccc32)c1` (centres undefined) has a displacement of 14.1%.
In the case of `C=CCSc1nnc2sc3ccccc3n12`, the displacement is reported as 4.1%.
`O=C(Oc1ccc(Oc2ccccc2)cc1)c1ccc(Br)o1` showed a displacement of 4.4%.
Work on `CCOc1ccc(C=C2C(=O)NC(=O)NC2=O)cc1OCC` yielded a displacement of 14.1%.
In the case of `CC(=O)Nc1ccccc1NC(=O)COc1ccccc1Cl`, the displacement is reported as -6.7%.
Work on `O=C(Nc1ccccc1)NC1CCCC1` yielded a displacement of -6.7%.
For `Cc1cc(OCC(=O)Nc2ccc(N3CCOCC3)c(Cl)c2)cc(C)c1Cl`, the displacement was 6.8%.
Work on `Cn1cc(-c2nn(-c3ccccc3)cc2/C=N/NC(N)=S)c2ccccc21` yielded a displacement of -2.2%.
Work on `COc1ccccc1-n1cnc2cc(NC(=O)c3ccccc3)ccc21` yielded a displacement of 7.1%.
Compound `CCOC(=O)c1c(NC(=O)/C=C/c2ccc(C)o2)sc(C)c1C` has a displacement of 15.4%.
With `O=C(O)CCN1C(=O)/C(=C/c2ccccc2F)SC1=S` the displacement was 8.8%.
For `COc1cccc2cc(-c3nc(-c4ccc(Cl)c(Cl)c4)cs3)c(=O)oc12`, the displacement was 0.1%.
Work on `COc1cc(/C=C/C(=O)NCc2ccc3c(c2)OCO3)cc(OC)c1OC` yielded a displacement of 12.9%.
In the case of `CC(=O)C1=C(O)C(=O)N(CC2CCCO2)C1c1cccc([N+](=O)[O-])c1` (centres undefined), the displacement is reported as 0.4%.
With `CCOc1ccc(S(=O)(=O)N(CC(=O)NCC(C)C)c2ccc(C)cc2)cc1` the displacement was -1%.
`O=C1NC(=S)N(c2ccc(Cl)cc2)C(=O)/C1=C/C=C/c1ccccc1` gave a displacement of -13.5%.
With `CC(C)CC(=O)N1CCN(Cc2ccc3ccccc3c2)CC1` the displacement was -9.7%.
In the case of `Cc1cc(C(=O)c2ccccc2)c2[nH]cc(C)c2c1`, the displacement is reported as 21.1%.
Work on `O=C(NN1CCOCC1)c1ccccc1F` yielded a displacement of -1.3%.
`O=C(Nc1ccc(-c2cn3ccccc3n2)cc1)c1cccc(Br)c1` gave a displacement of 11.2%.
With `COc1ccccc1N1CCN(C(=O)c2cc([N+](=O)[O-])ccc2Cl)CC1` the displacement was -7.2%.
Compound `COc1ccc(Br)c(C=Nc2cccc3nsnc23)c1O` has a displacement of 8.1%.
Compound `COc1ccc(C2C(C(=O)OC(C)C)=C(C)N=c3s/c(=C/c4c[nH]c5ccccc45)c(=O)n32)cc1` (centres undefined) has a displacement of 99.1%.
For `CC(C)C1C(C#N)(C#N)C(C#N)=C(N)C1(C)[N+](=O)[O-]` (centres undefined), the displacement was -9.6%.
Work on `CCOc1ccc2c(c1)NC(C)(C)c1ssc(=Nc3ccccc3O)c1-2` yielded a displacement of 5%.
With `COc1cccc(OC)c1C(=O)NCc1ccccc1Cl` the displacement was 3.2%.
For `Cc1c(C(=O)NCc2ccc3c(c2)OCO3)cccc1[N+](=O)[O-]`, the displacement was 7.1%.
`COC(=O)c1c(C)oc2ccc(OCc3ccccc3F)cc12` gave a displacement of 7.1%.
`O=C(CC(Nc1ccc([N+](=O)[O-])cc1)c1ccc(Br)cc1)c1ccc(Cl)cc1` (centres undefined) gave a displacement of 2.7%.
`COc1ccccc1OCC(=O)N/N=C/c1ccccc1Sc1ccccc1` was tested, and the displacement was 4.4%.
Work on `Cc1ccc(CN2CCN(N=Cc3ccc(Br)s3)CC2)c(C)c1` yielded a displacement of -6.1%.
With `O=C(Nc1cccc(-c2nc3ncccc3o2)c1)c1ccc(Br)o1` the displacement was -2.9%.
`CC(C)(C)c1ccc(/C=C/C(=O)n2cccn2)cc1` was tested, and the displacement was 14.3%.
Work on `CCOC(=O)c1ccccc1NC(=O)COc1ccc(C)cc1C` yielded a displacement of -8.7%.
`CCOC(=O)N1CCN(C(=O)/C(=C/c2ccc(OC)cc2)NC(=O)c2ccccc2)CC1` was tested, and the displacement was -5.3%.
`CCc1ccc(/C=N/NC(=O)c2c[nH]c3ccccc23)s1` was tested, and the displacement was 0.5%.
`COc1ccccc1OCCNC(=O)c1ccc(OC)c([N+](=O)[O-])c1` gave a displacement of -5.8%.
For `COc1ccc(N(CC(=O)Nc2ccc(Br)cc2)S(=O)(=O)c2ccc(C)cc2)c(OC)c1`, the displacement was 4.7%.
Compound `O=C1S/C(=C\c2cccc(Cl)c2)C(=O)N1Cc1ccccc1` has a displacement of -2.8%.
For `O=C(CSc1ccc(Cl)cc1Cl)Nc1cccc([N+](=O)[O-])c1`, the displacement was 10.6%.
With `C[n+]1cccc(C(=O)NCCOC(=O)Cc2ccccc2)c1` the displacement was 11.1%.
Work on `O=C(c1cc(F)c(F)cc1Cl)N1CCN(c2ccc([N+](=O)[O-])c(N3CCCC3)c2)CC1` yielded a displacement of 10.6%.
`COC(=O)c1ccccc1NC(=O)CN(c1cc(OC)ccc1OC)S(C)(=O)=O` showed a displacement of -1.5%.
With `CCc1cccc(C)c1NC(=O)CSc1nc2c(c(=O)n(C)c(=O)n2C)n1C` the displacement was 9.6%.
Work on `O=c1ccc2ccc(OCc3cccc(Cl)c3)cc2o1` yielded a displacement of 1.2%.
With `O=C(c1c(Cl)cccc1Cl)N1CCN(c2cccc(Cl)c2)CC1` the displacement was 2.3%.
With `CCOC(=O)C(=CNc1ccc(Cl)cc1C)C(=O)OCC` the displacement was -9.1%.
Compound `Fc1ccccc1OCCn1ccnc1` has a displacement of 3.9%.
For `Cc1cc2nc(-c3ccc(NC(=O)COc4ccccc4[N+](=O)[O-])cc3)oc2cc1C`, the displacement was -0.7%.
Work on `COCCNC(=O)c1cc(C(=O)OC)cc([N+](=O)[O-])c1` yielded a displacement of -2.8%.
In the case of `O=C(O)CCN1C(=O)/C(=C\c2ccc3c(c2)OCO3)SC1=S`, the displacement is reported as -2.7%.
With `CC(=O)Nc1ccc(-c2csc(N)n2)cc1` the displacement was 2.8%.
With `COc1ccc(N(CC(=O)Nc2ccc(Cc3ccncc3)cc2)S(=O)(=O)c2ccccc2)cc1` the displacement was -11.2%.
For `CN=C(NOCc1ccccc1)c1nonc1N`, the displacement was 10.6%.
With `CC/C=N/OC(=O)c1c(F)c(F)c(F)c(F)c1F` the displacement was -3.5%.
In the case of `COc1ccc(S(=O)(=O)Nc2ccc(NS(=O)(=O)c3ccc(OC)cc3)c3ccccc23)cc1`, the displacement is reported as 11.4%.
Work on `COc1cc(/C=c2\sc3nc4ccccc4n3c2=O)cc(I)c1OCCOc1cccc(C)c1` yielded a displacement of 10.9%.
For `O=C(Nc1ccc(Cl)cc1)N1CCN(c2ccccc2Cl)CC1`, the displacement was 19.1%.
With `COC(=O)c1cccc(NC(=O)COc2ccccc2C(C)(C)C)c1` the displacement was 5.3%.
Compound `COCCOC(=O)C1=C(C)N=c2s/c(=C\c3ccccc3Cl)c(=O)n2C1c1ccc(OC)cc1` (centres undefined) has a displacement of 4.8%.
Compound `COCCN1C(=O)/C(=C\c2ccc(Cl)cc2Cl)C(C(=O)OC)=C1C` has a displacement of 7.1%.
Compound `CCCCOC(=O)CSC1=C(C#N)C(c2cccc3ccccc23)CC(=O)N1` (centres undefined) has a displacement of -7.5%.
With `CCOP(=O)(OCC)C(Nc1ccc([N+](=O)[O-])cc1)c1c[nH]c2ccccc12` (centres undefined) the displacement was 4.2%.
In the case of `Cc1ccc(C)c(NC(=O)CSc2nc3ccccc3o2)c1`, the displacement is reported as -4.7%.
`O=C1c2ccccc2C(=O)c2c(NC3CCCCC3)cccc21` showed a displacement of -2.9%.
With `COC(=O)c1cc(NC(=O)COc2ccc([N+](=O)[O-])cc2)cc(C(=O)OC)c1` the displacement was 9.2%.
In the case of `COc1ccc(NC(=O)c2c(-c3c(F)cccc3Cl)noc2C)c([N+](=O)[O-])c1`, the displacement is reported as -9.1%.
With `CC(C)C(=O)Nc1cccc(-c2nc3ccccc3o2)c1` the displacement was -34.6%.
`COC(=O)c1ccc(C(=O)OC)c(NC(=O)Cc2ccccc2[N+](=O)[O-])c1` was tested, and the displacement was 14.7%.
For `O=S(=O)(c1cccs1)N1CCN(Cc2ccc3c(c2)OCO3)CC1`, the displacement was 7.5%.
`Cc1ccnc(NS(=O)(=O)c2ccc(NC(=O)C3CC=CCC3C(=O)O)cc2)n1` (centres undefined) was tested, and the displacement was 10.2%.
`CCOc1ccc(C2(C)C(=O)N(CN3CCOCC3)C(=O)N2CN2CCOCC2)cc1` (centres undefined) showed a displacement of 3%.
`Cc1ccc2c(c1)c(N=Nc1nnc3c(n1)[nH]c1ccccc13)c(O)n2C` gave a displacement of 26.4%.
With `Cc1ccc(Cn2c(NC(=O)c3ccccc3)nc3ccccc32)cc1` the displacement was -13.5%.
Compound `C=C1c2ccccc2NC(=O)N1c1cccc(Cl)c1` has a displacement of 13.6%.
Compound `O=C(Nc1ccc2c(c1)OCCO2)c1ccncc1` has a displacement of -2.6%.
In the case of `Cc1ccc(S(=O)(=O)/N=C(/Nc2cccc(O)c2)c2ccccc2)cc1`, the displacement is reported as 7.4%.
In the case of `Cc1ccc(C(C)C)c(OCC(=O)Nc2cccnc2)c1`, the displacement is reported as -7.7%.
For `CCOc1ccc(-c2cc(C(=O)Nc3cc(OC)c(Cl)cc3OC)c3ccccc3n2)cc1`, the displacement was 17.8%.
In the case of `Cc1ccc(NS(=O)(=O)c2ccc(C)c([N+](=O)[O-])c2)cc1`, the displacement is reported as 15.6%.
`COc1ccc(/C=C2\SC(=S)N(c3cccc(C)c3C)C2=O)cc1` showed a displacement of -3.5%.
`O=C(Nc1ccccc1Br)c1ccccc1[N+](=O)[O-]` was tested, and the displacement was -7.3%.
Work on `COc1ccc(Cl)cc1C(=O)Nc1ccc(N(C)C)cc1` yielded a displacement of 1.9%.
In the case of `COc1cc(OC)cc(C(=O)N2CCN(Cc3cc(OC)ccc3OC)CC2)c1`, the displacement is reported as 4.7%.
`CC(=O)C1=C(O)C(=O)N(CCN(C)C)C1c1ccccc1Cl` (centres undefined) was tested, and the displacement was -2.3%.
For `CCn1c(-c2ccccc2C)n[nH]c1=S`, the displacement was -17.3%.
In the case of `Cc1ccc(C(=O)CC2(O)C(=O)Nc3ccccc32)cc1` (centres undefined), the displacement is reported as -2.1%.
In the case of `CC1=[N+]([O-])C(C)(C)C(c2ccco2)=[N+]1[O-]`, the displacement is reported as 14.4%.
Compound `CC(=O)NC1=NC(=O)/C(=C\c2ccc(I)o2)S1` has a displacement of 20.2%.
For `COC(=O)/C(=N/O)c1c[nH]c2ccccc12`, the displacement was 5.9%.
Compound `NC1=NC(=O)/C(=C/c2cccc(Oc3ccccc3)c2)S1` has a displacement of 11.1%.
In the case of `Cc1ccc(NC2=NC3(CCCCC3)N=C(N)N2)cc1`, the displacement is reported as -8.4%.
`CCOC(=O)c1c(-c2ccccc2)oc2ccc(OC(=O)c3ccc([N+](=O)[O-])cc3)cc12` showed a displacement of 12.2%.
In the case of `N/C(=N\OC(=O)c1ccccc1Cl)c1ccncc1`, the displacement is reported as -1.7%.
`NC1=NC(=O)CC(C(=O)Nc2ccc(Cl)cc2)S1` (centres undefined) showed a displacement of 2.1%.
Work on `CCOc1ccccc1NC(=O)C1CN(S(=O)(=O)c2ccccc2)CCN1S(=O)(=O)c1ccccc1` (centres undefined) yielded a displacement of 11.2%.
With `O=C1/C(=C/c2ccc(Br)o2)SC(=S)N1c1ccc([N+](=O)[O-])cc1` the displacement was -3%.
Work on `CCn1c2ccccc2c2cc(CN3CCN(C(=O)CC(C)C)CC3)ccc21` yielded a displacement of -4.4%.
`COc1cc(/C=C2\SC(=S)N(Nc3ccccc3)C2=O)cc(OC)c1OC` gave a displacement of 7.1%.

— PubChem BioAssay AID1240 (Sanford-Burnham Center for Chemical Genomics, 2008)
